From PubChem BioAssay AID686992 (Broad Institute, 2013)
Hit rate of the full screen: of about 260,000 compounds, about 960 (0.37%) were called active. The inconclusive results got no clear call from the source; some entries with a clear call stand among them for comparison.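 Rule for the calls: active = mean E-selectin-positive cell signal at least 10% of the positive control, reached in at least 60% of replicates, without over 20% cell loss; inconclusive = no rule given, readout overlaps actives, possibly toxicity-flagged; inactive = the rest, including those meeting only one limit.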

Each compound was assayed against E-selectin (Homo sapiens) (UniProt P16581) (assay: inducers of endothelial E-selectin expression – imaging, HUVEC, immunofluorescence imaging, single point, primary screen (AID 686992;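 note: signal is the percent of cells scored E-selectin positive by PE staining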)). Settings: at 7.58 µM, active compounds read high, normalized: neutral wells 0, TNF-alpha wells 100.
Outline: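 assay system = HUVEC, human umbilical vein endothelial cells | input = 3,000 HUVEC seeded per well | medium = EGM-2 growth medium on 0.1% gelatin-coated wells | dosing = one compound dose added by pin transfer | signal = immunofluorescence imaging | read-out basis = % PE-positive cells | control set = TNF-alpha, DMSO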

UniProt P16581, sequence (P16581 whole entry, looked up): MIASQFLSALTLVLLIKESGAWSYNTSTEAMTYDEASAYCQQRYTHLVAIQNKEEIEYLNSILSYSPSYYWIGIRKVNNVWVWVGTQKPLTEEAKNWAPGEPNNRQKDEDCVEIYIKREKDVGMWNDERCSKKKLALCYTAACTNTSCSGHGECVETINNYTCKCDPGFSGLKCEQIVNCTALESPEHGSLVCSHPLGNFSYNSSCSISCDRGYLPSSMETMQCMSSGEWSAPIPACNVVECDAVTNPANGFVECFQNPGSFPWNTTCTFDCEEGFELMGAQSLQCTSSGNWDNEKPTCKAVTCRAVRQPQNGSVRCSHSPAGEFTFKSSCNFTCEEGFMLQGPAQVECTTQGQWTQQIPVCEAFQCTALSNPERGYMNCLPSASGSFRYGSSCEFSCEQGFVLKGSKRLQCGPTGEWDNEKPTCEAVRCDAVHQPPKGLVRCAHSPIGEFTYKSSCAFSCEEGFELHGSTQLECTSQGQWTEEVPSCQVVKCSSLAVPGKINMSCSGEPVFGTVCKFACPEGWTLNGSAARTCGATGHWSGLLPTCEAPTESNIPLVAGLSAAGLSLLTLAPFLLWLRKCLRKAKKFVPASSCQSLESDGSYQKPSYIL

| Structure (SMILES) | activation |
| --- | --- |
| COc1ccc(C(O)c2nc(-c3cnc4ccccc4c3)cs2)cc1 (stereo not given) | inactive: -0.003% |
| COc1cccc(N2CCN(C(=O)c3cccc(N4C(=O)NC5CC4(C)Oc4c(OC)cccc45)c3)CC2)c1 (stereo not given) | inconclusive: 29.8% |
| CNC[C@@H]1Oc2ccc(NC(=O)Cn3cnnn3)cc2CC(=O)N([C@@H](C)CO)C[C@H]1C | inconclusive: 53.5% |
| CC1(C)Cc2ccccc2-c2nc3n(c(=O)c21)CCS3 | active: 77.4% |
| CC(C)(C)C1CCc2c(sc(NC(=O)C3CC=CCC3C(=O)O)c2C#N)C1 (stereo not given) | inconclusive: 76.8% |
| C[C@@H]1CN([C@H](C)CO)C(=O)c2cc(NC(=O)c3ccncc3)ccc2O[C@@H](C)CCCCO[C@H]1CN(C)Cc1ccncc1 | inactive: -0.284% |
| C[C@H]1CN([C@@H](C)CO)C(=O)c2cc(N(C)C)ccc2O[C@H]1CN(C)Cc1ccc(C(=O)O)cc1 | inconclusive: 202% |
| COc1cc(/C=C2/C(=O)NN(c3ccc(C)c(Cl)c3)C2=O)cc([N+](=O)[O-])c1O | inconclusive: 36.2% |
| C[C@H]1CN([C@@H](C)CO)C(=O)c2cc(-c3cncnc3)cnc2O[C@H]1CN(C)C(=O)Cc1ccccc1 | inconclusive: 37.5% |
| CC(C)NC(=O)N(C)C[C@H]1Oc2ccc(NS(=O)(=O)c3ccc(Cl)cc3)cc2CC(=O)N([C@H](C)CO)C[C@@H]1C | inconclusive: 31% |
| N#C[C@@H]1[C@@H](c2ccccc2)[C@@H](CO)N1C(=O)Cc1ccccn1 | inconclusive: 38.9% |
| O=Cc1cccn1-c1c(C(=O)O)cnn1-c1ccccc1 | inconclusive: 30.9% |
| CCCNC(=O)C[C@H]1CC[C@@H]2[C@H](COc3ccc(NC(=O)C4CCCC4)cc3C(=O)N2C)O1 | inactive: -0.067% |
| CCOC(=O)N[C@@H](Cc1cccnc1)C(=O)N1CCC[C@H]1C(=O)NC1CCCC1 | inconclusive: 47.1% |
| C[C@H]1CN([C@@H](C)CO)S(=O)(=O)c2ccc(-c3ccc(C#N)cc3)cc2O[C@H]1CN(C)C | inconclusive: 34% |
| C[C@@H]1CN([C@@H](C)CO)C(=O)Cc2cc(NC(=O)CCCCCC(=O)Nc3ccccc3N)ccc2O[C@@H]1CN(C)C(=O)Nc1ccc2c(c1)OCO2 | active: 181% |
| C[C@@H]1CN([C@@H](C)CO)C(=O)c2cc(C3=CCCC3)cnc2O[C@H]1CN(C)C(=O)c1ccncc1 | inactive: 0.991% |
| C#CCOCCOCCOCCNc1nc(N2CCN(C(=O)[C@H](CCC(=O)O)n3cc([C@@H](N)CO)nn3)CC2)nc(N2CCN(C(=O)[C@H](CCC(=O)O)n3cc([C@@H](N)CCSC)nn3)CC2)n1 | inactive: -0.0775% |
| NC(=S)Nc1ccc2cc[nH]c2c1 | inconclusive: 35.3% |
| Cc1cc(C)c(OCC(=O)OCC(=O)N2CCc3ccccc3C2)c(C)c1 | inactive: -0.279% |
| CN(C)/C=C/C(=O)c1cc(F)cc(C(F)(F)F)c1 | inconclusive: 37.7% |
| COc1ccc(S(=O)(=O)N(C)C[C@@H]2Oc3ccc(NC(=O)Nc4c(C)noc4C)cc3C(=O)N([C@H](C)CO)C[C@@H]2C)cc1 | inconclusive: 32.5% |
| CCN(Cc1ccccc1)S(=O)(=O)c1ccc(OC)c2ncccc12 | inconclusive: 102% |

| Structure (SMILES) | activation |
| --- | --- |
| CC=Cc1ccc2n(c1=O)C[C@@H]1[C@@H](CO)[C@H](C(=O)NCC(F)(F)F)N(CC3CC3)[C@H]21 (mixture of isomers) | inactive: -0.713% |
| COc1ccc(S(=O)(=O)N(C)C[C@H]2Oc3ccc(NC(=O)c4ccncc4)cc3C(=O)N([C@H](C)CO)C[C@H]2C)cc1 | active: 27.7% |
| O=C(NCc1ccc(F)cc1)c1cc(C2CCCCN2C(=O)CCCc2ccccc2)on1 (stereo not given) | active: 82.9% |
| C[C@H](CO)N1C[C@H](C)[C@H](CN(C)S(=O)(=O)c2ccc(Cl)cc2)Oc2ccc(NC(=O)NC3CCCCC3)cc2C1=O | active: 436% |
| Cc1[nH]c(=O)c(C#N)cc1-c1ccncc1 | active: 57.6% |
| O=C(NCc1ccc(F)cc1)c1cccnc1C(=O)O | inconclusive: 40.3% |
| CC(C)NC(=O)N(C)C[C@H]1Oc2ccc(NC(=O)CCN3CCOCC3)cc2C(=O)N([C@@H](C)CO)C[C@H]1C | active: 46.3% |
| C[C@@H]1CN([C@H](C)CO)C(=O)c2cccc(NS(C)(=O)=O)c2O[C@H]1CN(C)Cc1ccncc1 | active: 125% |
| COc1ccc(-c2nc(CN3CCC(C(=O)NC4CC4)CC3)c(C)o2)cc1OC | inconclusive: 76.8% |
| O=C(c1ccc(F)cc1)N1CC(=O)N2[C@H](C1)[C@H](c1ccc(C#CCC3CCCC3)cc1)[C@@H]2CO | inactive: 0.353% |
| O=C(C1CCC1)N1CC[C@@H]2[C@H](CO)Nc3ccc(C#Cc4cccc(F)c4)cc3[C@@H]21 | active: 30.6% |
| CCCCC(=O)NC(c1ccccc1Cl)c1c(O)ccc2ccccc12 (stereo not given) | inconclusive: 29% |
| Cc1ccc(NC(=O)c2ccccn2)cc1S(=O)(=O)N1CCOCC1 | inconclusive: 45.6% |
| CO[C@H]1CN(C)C(=O)c2ccc(NC(=O)c3ccccc3)cc2OC[C@@H](C)NC[C@@H]1C | inactive: -0.199% |
| Cn1c(=O)n(C)c2cc([N+](=O)[O-])c(N3CCN(C(=O)c4cccc(Cl)c4)CC3)cc21 | inactive: 1.4% |
| COC(=O)C1=CN(c2c(C)cc(C)cc2C)C(N)=C(C#N)C1c1cccc(F)c1 (stereo not given) | inactive: -0.0735% |
| COc1ccc(-c2ccccc2[C@@H]2[C@@H](C#N)N(C(=O)NC3CCCC3)[C@H]2CO)cc1 | inconclusive: 55.7% |
| CCN1C(=O)C2CCCCN2c2ccc(C(=O)NCCOC)cc21 (stereo not given) | inconclusive: 27% |
| COc1ccc(S(=O)(=O)Nc2ccc3c(c2)CC(=O)N([C@H](C)CO)C[C@H](C)[C@H](CN(C)Cc2ccc(Oc4ccccc4)cc2)O3)cc1 | inactive: 1.39% |
| Cc1cc(S(=O)(=O)NCC2CC2)c(Cl)cc1Cl | inconclusive: 26.5% |
| CC(=O)Nc1ccc(NC(=O)[C@@H]2CCCN2S(=O)(=O)c2ccc3c(c2)OCCO3)cc1 | inconclusive: 50.3% |
| CN1C(=O)c2cc(NS(C)(=O)=O)ccc2OC[C@@H]2O[C@H](CC(=O)NCc3ccc(-c4ccccc4)cc3)CC[C@@H]21 | active: 64.7% |
